Reference: the supplement of paper PMC11181314
Some of the results follow. Single values of this set are uncertain.

Test system: U2OS
Assay: Cell Painting induction (percent of morphological features significantly changed vs DMSO); higher = stronger morphological change
Conditions: 10 µM, 20 h
Procedure: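 Cell Painting assay in U2OS cells: compounds at 10 µM for 20 h, six dyes, 579 robust CellProfiler features as Z-scores vs DMSO median (MAD). Induction is the % of significantly changed features (active if ≥5%); relative cell count is in % of DMSO. The primary run holds DCM compounds preselected for induction ≥10%; the confirmation repeat defines active compounds (370 of 549). Replicate agreement is low, attributed to precipitation.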

[1] = run: primary screen (compounds selected for induction >=10%)
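Further: stains mark DNA, RNA and nucleoli, ER, actin, Golgi, plasma membrane and mitochondria, read by high-content imaging, with DMSO controls at matching solvent concentration.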

Compound	Cell Painting induction (run: confirmation repeat)	Cell Painting induction [1]
CCOc1ccc(C(=O)Nc2ccc(C(C)C)cc2)cc1OCC	active: 23%	18%
CCCCCCNC(=O)c1ccc(CNS(=O)(=O)c2ccc(OC)cc2)cc1	active: 25.6%	15.2%
COc1ccc(NC(=S)N/N=C/c2cccn2Cc2ccccc2F)cc1	active: 22.1%	12.8%
COc1ccc(-c2cc(C(F)(F)F)nc(SCC(=O)Nc3cc(C)on3)n2)cc1	active: 42%	46.3%
CCOC(=O)C1=C(Nc2cccc3ccccc23)SCC1=O	inactive: 1.9%	11.9%
Cc1cc(-c2ccc(C)c(S(=O)(=O)Nc3cccc(CN4CCCC4)c3)c2)on1	active: 24.4%	21.4%
Cc1ccc(NC(=O)CSc2nc3ccccc3nc2N2CCOCC2)c(C)c1	active: 8.8%	19.9%
COc1ccccc1CNC(=O)c1oc2ccc(S(=O)(=O)N3CCOCC3)cc2c1C	active: 26.9%	14.9%
CCc1cc(C(=O)N/N=C/c2ccc(OC)cc2)c2ccccc2n1	active: 65.1%	49.6%
O=C(Nc1ccc(Br)cc1)C1[C@@H]2C=C[C@]3(O2)C(C(=O)NC2CCCCC2)N(CCN2CCCCC2)C(=O)[C@H]13 (stereo partly drawn)	active: 53.9%	52.3%
Cc1ccccc1CN1CCC(CNC(=O)Nc2ccc(F)cc2F)CC1	active: 17.3%	24.5%
CCN(CC)CCOc1nnc(-c2ccc(OC)cc2)c2ccccc12	inactive: 2.1%	17.4%
CCOc1ccc(S(=O)(=O)NCC2CCCO2)cc1NC(=O)c1ccccc1F (stereo not drawn)	inactive: 2.8%	22.1%
O=C(NCc1ccc(F)cc1)c1cccc2c1C(=O)N(Cc1cccnc1)C2	inactive: 4%	12.6%
